Data as given in the supplement of paper PMC12340641.
Over roughly 1,000 compounds, “relative growth in counter assay (no AraC = 100%, AraC + DMSO = 0%)” has its median near -1.1; the highest 2% begin near 20. The list shows a part of the results.

The compounds below were run on HEK293FT dCK*-only (assay: relative growth in counter assay (no AraC = 100%, AraC + DMSO = 0%); higher = more growth rescue independent of IKZF1). Details: compound concentration: 5 uM; AraC concentration: 0.3 uM; overnight pretreatment + 4 days AraC.
Description: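 Growth recovery screen of the molecular-glue-like (Specs) library. HEK293FT cells expressing a dCK*-IKZF1 fusion (primary) or dCK* alone (counter) were pretreated overnight with compound at 5 uM, then given 0.3 uM AraC for 4 days. Hoechst nuclei were counted by imaging. Primary: normalised to pomalidomide (100%) and DMSO (0%), mean of 2 replicates. Counter: normalised to no-AraC (100%) and AraC+DMSO (0%), single replicate.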

Compound | relative growth in counter assay [%]
Cc1nc(Nc2cccc(C3CCN(C(=O)CCc4c(C)n[nH]c4C)CC3)n2)sc1C | 9.88
COc1cc(NS(=O)(=O)c2ccc(NC(=O)CCC(=O)O)cc2)nc(OC)n1 | 0.12
O=C1CCC(N2C(=O)c3cccc(N4CCC(Cn5cc(C(=O)O)cn5)CC4)c3C2=O)C(=O)N1 (stereo not given) | 4.03
COc1ccc(NS(=O)(=O)c2ccc(N)cc2)nn1 | -2.37
COc1ccc(CC(=O)Nc2ccc(S(=O)(=O)Nc3ncccn3)cc2)cc1OC | -21.6
O=C1CCC(N2C(=O)c3cc(F)c(N4CCN(C5CCC(C(=O)O)CC5)CC4)cc3C2=O)C(=O)N1 (stereo not given) | 4.66
COCC(=O)N1CCCC1c1cccc(Nc2ncc(C)s2)n1 (stereo not given) | 0.29
Cc1cccc(OCCCC(=O)Nc2ccc(S(=O)(=O)Nc3nc(C)cc(C)n3)cc2)c1 | 0.67
Cc1csc(Nc2cccc(C3CCCN3C(=O)c3ccc4c(c3)CCCN4C)n2)n1 (stereo not given) | 13.3
O=C(O)CCOCCOCCOCCNc1ccc2c(c1)C(=O)N(C1CCC(=O)NC1=O)C2=O (stereo not given) | 9.38
Cc1ccc(OCC(=O)Nc2ccc(S(=O)(=O)Nc3ncccn3)cc2)cc1C | 2.12
Cc1nc(Nc2cccc(C3CN(CC(=O)N4CCC(C)CC4)CCO3)n2)sc1C (stereo not given) | 7.05
Cc1csc(Nc2cccc(C3CN(C(=O)c4[nH]nc5c4CCCCC5)CCO3)n2)n1 (stereo not given) | 10
CCc1ccc(N2CC(C(=O)Nc3ccc(S(=O)(=O)Nc4ncccn4)cc3)CC2=O)cc1 (stereo not given) | 5.54
CCCc1cnc(Nc2cccc(C3(CO)CCN(C(=O)C4CCCCC4)CC3)n2)s1 | -21.5
Cc1cc(C)cc(OCC(=O)Nc2ccc(S(=O)(=O)Nc3ccccn3)cc2)c1 | 3.13
Cn1c(=O)c2c(ncn2CC(=O)Nc2ccc(S(=O)(=O)Nc3ncccn3)cc2)n(C)c1=O | 1.91
COc1nccnc1NS(=O)(=O)c1ccc(NC(=S)NC(=O)c2ccco2)cc1 | 8.67
COc1cc2c(cc1CCC(=O)N1CCCC1c1cccc(Nc3nccs3)n1)CCC2 (stereo not given) | -3.49
COc1cc(C(=O)Nc2ccc(S(=O)(=O)Nc3ccccn3)cc2)cc(OC)c1OC | -0.76
Cc1ccnc(NS(=O)(=O)c2ccc(NC(=O)c3ccccc3C(=O)O)cc2)n1 | -2.52
O=C(Nc1ccc(Oc2ccc3c(c2)C(=O)N(c2ccc(O)cc2)C3=O)cc1)c1cccs1 | 3.48
CNCC(=O)N1CCC(CO)(c2cccc(Nc3ncc(-c4ccccc4)s3)n2)CC1 | -9.33
O=C(COc1ccc(Cl)cc1)Nc1ccc(S(=O)(=O)Nc2ccccn2)cc1 | -2.37

Compound | relative growth in counter assay [%]
Cc1cnc(Nc2cccc(CC3CCN(CC(N)=O)CC3)n2)s1 | -24.6
O=C(O)CC1CCN(c2cccc3c2C(=O)N(C2CCC(=O)NC2=O)C3=O)CC1 (stereo not given) | 4.23
CCOc1ccccc1C(=O)Nc1ccc(S(=O)(=O)Nc2ncccn2)cc1 | 6.59
COc1nccnc1NS(=O)(=O)c1ccc(NC(=O)c2cccc(C)c2)cc1 | -1.6
Cc1ccc(OCC(=O)Nc2ccc(S(=O)(=O)Nc3ccccn3)cc2)cc1C | -5.55
COc1ccc(Cl)cc1NC(=O)CSc1nnc2c(n1)[nH]c1ccccc12 | -12
COc1ccc(NS(=O)(=O)c2ccc(NS(=O)(=O)c3ccc(C)cc3)cc2)nn1 | -5.45
Cc1cc(NS(=O)(=O)c2ccc(NC(=O)COc3cccc(Br)c3)cc2)nc(C)n1 | -1.85
Cc1ccc2[nH]c3nc(SCC(=O)Nc4cccc(Cl)c4Cl)nnc3c2c1 | -17
O=C(/C=C/c1cccnc1)N1CCCC(c2cc3ccccc3c(Nc3nccs3)n2)C1 (stereo not given) | -4.39
Cc1cc(C)nc(NS(=O)(=O)c2ccc(NC(=S)NC(=O)/C=C/c3ccco3)cc2)n1 | -2.58
O=C(CCCOc1ccc(Cl)cc1)Nc1ccc(S(=O)(=O)Nc2ncccn2)cc1 | 0.53
CC(C)(C)C(=O)N1CCC(Cc2ccc(Nc3ncc(-c4ccc(F)cc4)s3)nc2)CC1 | 12.2
COc1cccc(CC(=O)N2CCC(c3cccc(Nc4nc(C)c(C)s4)n3)CC2)c1 | 2.52
CC(C)(C)c1ccc(OCC(=O)Nc2ccc(S(=O)(=O)Nc3ccccn3)cc2)cc1 | -2.22
Cc1ccnc(NS(=O)(=O)c2ccc(NS(=O)(=O)c3ccc(F)cc3)cc2)n1 | -1.79
O=C(COc1ccc(-c2ccccc2)cc1)Nc1ccc(S(=O)(=O)Nc2ccccn2)cc1 | -8.43
Cc1cnc(Nc2cccc(C3CCCN3C(=O)COc3ccccc3)n2)s1 (stereo not given) | -20.5
COc1ccc(C(=O)Nc2ccc(S(=O)(=O)Nc3ccccn3)cc2)cc1OC | 2.76
O=C(Nc1ccc(S(=O)(=O)Nc2ncccn2)cc1)c1ccccc1F | -5.27
O=C(O)CCOCCOCCNc1ccc2c(c1)C(=O)N(C1CCC(=O)NC1=O)C2=O (stereo not given) | -0.35
COc1cccc(OC)c1C(=O)Nc1ccc(S(=O)(=O)Nc2nccc(C)n2)cc1 | -1.58
Cc1cc(OCC(=O)Nc2ccc(S(=O)(=O)Nc3ncccn3)cc2)ccc1Cl | 5.52
O=C(c1ccc2c(c1)OCCO2)N1CCC(c2cccc(Nc3nccs3)n2)CC1 | -18.7

Compound | relative growth in counter assay [%]
Cc1csc(Nc2cccc(C3CCCN3C(=O)c3cnc(C)nc3C)n2)n1 (stereo not given) | -4.08
CC(C)(N)C(=O)N1CCC(CO)(c2cccc(Nc3ncc(-c4ccccc4)s3)n2)CC1 | -23.9
CNC(=O)C(c1cccc(Nc2ncc(C)s2)n1)C1CCN(C(=O)c2cccc(Cl)c2F)CC1 (stereo not given) | -0.24
Cc1cnc(Nc2cccc(C3CCN(C(=O)[C@@H]4CCCCN4)CC3)n2)s1 | -21
CCOC(=O)c1ccc(N2C(=O)c3ccc(Oc4ccc(N)cc4)cc3C2=O)cc1 | 1.1
Cc1cc(C)nc(NS(=O)(=O)c2ccc(NC(=S)NC(=O)/C=C/c3cccs3)cc2)n1 | -2.17
Cc1csc(Nc2cccc(C3CN(C(=O)CCn4ncc5ccccc54)CCO3)n2)n1 (stereo not given) | 18.1
Cc1ccnc(NS(=O)(=O)c2ccc(NC(=O)c3cccs3)cc2)n1 | -6.06
Cc1cnc(Nc2cccc(C3CCCN3C(=O)Cn3cnc4ccccc43)n2)s1 (stereo not given) | -24.3
CC(=O)Nc1ccc(S(=O)(=O)Nc2ccc(S(=O)(=O)Nc3nccc(C)n3)cc2)cc1 | -2.04
COc1ccc2[nH]c(SCC(=O)Nc3ncccn3)nc2c1 | -6.84
Cc1cnc(Nc2cccc(C3CCCN3C(=O)CCCc3ccc(F)cc3)n2)s1 (stereo not given) | 10.1
CC(=O)Nc1ccc(C(=O)Nc2ccc(S(=O)(=O)Nc3nccc(C)n3)cc2)cc1 | -3.58
Cc1cc(C)nc(NS(=O)(=O)c2ccc(NC(=O)c3cc4ccccc4oc3=O)cc2)n1 | -1.73
O=C(Nc1ccc(S(=O)(=O)Nc2ccccn2)cc1)c1ccc(Cl)cc1 | 3.06
O=C(COc1ccc(Cl)cc1)Nc1ccc(S(=O)(=O)Nc2ncccn2)cc1 | -5.81
Cc1cnc(Nc2cccc(C(C(=O)N(C)C)C3CCN(C(=O)C4CCCCC4)CC3)n2)s1 (stereo not given) | 0.69
CN(C)CC(=O)N1CCCC1c1cccc(Nc2nccs2)n1 (stereo not given) | -0.55
Cc1csc(Nc2cccc(C3CCCN3C(=O)Cn3c(C)cc(C)nc3=O)n2)n1 (stereo not given) | -2.64
COc1ccccc1/C=C/C(=O)Nc1ccc(S(=O)(=O)Nc2cc(C)nc(C)n2)cc1 | -22
CCCc1cnc(Nc2cccc(C3CCN(C(=O)CNC(=O)OC(C)(C)C)CC3)n2)s1 | -6.76
Cc1cccc(OCC(=O)Nc2ccc(S(=O)(=O)Nc3ncccn3)cc2)c1C | -5.94
Cc1cc(C)nc(NS(=O)(=O)c2ccc(NC(=O)c3ccccc3Cl)cc2)n1 | -0.34
O=C(CCn1ncc2c1CCCC2)N1CCOC(c2cccc(Nc3nccs3)n2)C1 (stereo not given) | 13.2

Compound | relative growth in counter assay [%]
COC(=O)CCC(=O)Nc1ccc(S(=O)(=O)Nc2cc(OC)nc(OC)n2)cc1 | -4.82
O=C(O)CCOCCOCCOCCNc1cc2c(cc1F)C(=O)N(C1CCC(=O)NC1=O)C2=O (stereo not given) | 0.94
Cc1cnc(Nc2cccc(C3CCN(C(=O)CCC4CCCCC4)CC3)n2)s1 | 8.69
Cc1cnc(Nc2cccc(C3CN(C(=O)CC4CCCCC4)CCO3)n2)s1 (stereo not given) | -15.4
COc1cc(NS(=O)(=O)c2ccc(NC(=O)C3CC3)cc2)nc(OC)n1 | -2.77
Cc1cc(C)nc(NS(=O)(=O)c2ccc(Nc3nc(-c4ccc(C)c(C)c4)cs3)cc2)n1 | -1.55
Cc1cnc(Nc2cccc(C3CCN(C(=O)C4(NC(=O)C(C)C)CCCCC4)CC3)n2)s1 | -24.4
CCCc1cnc(Nc2cccc(C3CCN(C(=O)[C@@H]4CCCCN4C(=O)COC)CC3)n2)s1 | 0.85
CCNc1nc(NCC)nc(NS(=O)(=O)c2ccc(N)cc2)n1 | -0.92
NCC(=O)N1CCC(c2cccc(Nc3ncc(Br)s3)n2)CC1 | -20.7
CC(C)(C)c1ccccc1OCC(=O)Nc1ccc(S(=O)(=O)Nc2ccccn2)cc1 | 4.41
Cc1cnc(Nc2cccc(C3CCN(C(=O)C4CCC4)CC3)n2)s1 | -21
Cc1ccc(OCC(=O)Nc2ccc(S(=O)(=O)Nc3nc(C)cc(C)n3)cc2)c(C)c1 | 0.72
CC(=O)Nc1ccc(S(=O)(=O)Nc2ccc(Cl)cn2)cc1 | 11.9
Cc1nc(Nc2cccc(C3CCCN3C(=O)c3n[nH]c4c3CCCC4)n2)sc1C (stereo not given) | 4.66
Nc1ccc(S(=O)(=O)Nc2nccc(/C=C/c3ccc([N+](=O)[O-])cc3)n2)cc1 | 4.76
COc1cccc(CCC(=O)N2CCOC(c3cccc(Nc4ncc(C)s4)n3)C2)c1 (stereo not given) | 6.36
Cc1ccc(OCC(=O)Nc2ccc(S(=O)(=O)Nc3ccccn3)cc2)c(C)c1 | 4.7
Cc1cc(C)nc(NS(=O)(=O)c2ccc(NC(=O)c3ccccc3Br)cc2)n1 | -0.06
Cc1cnc(Nc2cccc(C3CN(C(=O)C4CCCCC4)CCO3)n2)s1 (stereo not given) | -16.6
COc1cc(NS(=O)(=O)c2ccc(NC(=O)c3ccc(C)cc3)cc2)nc(OC)n1 | 12.5
COCC(C)NC(=O)CN1CCC(c2cccc(Nc3nccs3)n2)CC1 (stereo not given) | -1.53
CC(=O)N1CCCC1c1csc(Nc2ccccn2)n1 (stereo not given) | 6.68
